Data from PubChem BioAssay AID2451 (National Center for Advancing Translational Sciences (NCATS), 2010).
Several values for one entry are separate records, joined by “and”; a condition that tells them apart may be missing. Identical values can stand only once. Out of some 290,000 compounds screened, about 2,100 (0.72%) were called active. This list was built around the results that the source calls inconclusive (neither active nor inactive); the mix of calls is not that of the screen. The call rests on the fitted dose curve; in most records, active means well fitted inhibition curve with a large enough effect; inconclusive means small, poorly fitted or top-dose-only effect, or effect the other way; inactive means flat fitted curve, though single readings scatter. A potency beside an inconclusive call is a rough fit, not a confirmed value.

The compounds below were run against Fructose-bisphosphate aldolase (Giardia intestinalis (strain ATCC 50803 / WB clone C6)) (UniProt A8B2U2) (assay: qHTS Assay for Inhibitors of Fructose-1,6-bisphosphate Aldolase from Giardia Lamblia). Details: purified Giardia FBPA; activity, negative = inhibition: at 59.6 µM (top of the series) unless noted.
Outline: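 40 nM FBPA preincubated 10 min at RT with compound (up to 57.5 uM final), then substrate plus GAPDH/TPI/NAD/arsenate coupling and diaphorase/resazurin added. Fluorescence read after 20 min at RT, 525/598 nm.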
Further: nearly all actives have a fitted effect of over 55% in size.
On the % scale 0 is the no-effect control and ±100 the full control effect; potency means the concentration at half of the fitted maximal effect; tags describe the fitted curve by direction and shape.

UniProt A8B2U2, sequence (A8B2U2 whole entry, looked up): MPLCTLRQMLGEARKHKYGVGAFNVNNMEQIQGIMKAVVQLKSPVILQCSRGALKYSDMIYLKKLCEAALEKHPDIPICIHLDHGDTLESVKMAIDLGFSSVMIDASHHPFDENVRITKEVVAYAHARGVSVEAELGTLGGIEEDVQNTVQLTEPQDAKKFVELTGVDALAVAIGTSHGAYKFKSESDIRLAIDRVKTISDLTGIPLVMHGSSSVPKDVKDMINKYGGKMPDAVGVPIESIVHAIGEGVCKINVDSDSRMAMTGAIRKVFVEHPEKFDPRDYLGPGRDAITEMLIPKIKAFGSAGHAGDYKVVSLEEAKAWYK

Row | SMILES | Potency | activity, negative = inhibition
1 | COc1cccc(CN2CCNC(=O)C2CC(=O)N2CCCCO2)c1OC (centres undefined) | inconclusive: 7.06 µM [inhibitor, partial curve] | 
2 | CCOc1cc(/C=C2\CCCc3c2nc2ccccc2c3C(=O)O)ccc1OC | inconclusive: 6.31 µM [inhibitor, full curve] | 
3 | CCN(c1ccccc1)S(=O)(=O)c1ccc(C(=O)N(CCN(C)C)c2nc3c(F)cc(F)cc3s2)cc1 | inconclusive: 28.2 µM [inhibitor, single point] | 
4 | CC1CN(CC(=O)Nc2nc3ccccc3s2)CC(C)O1 (centres undefined) | inconclusive: 14.1 µM [inhibitor, partial curve] | 
5 | COc1cccc(NC(=S)/C(=C(\[O-])c2ccc(OC(F)F)cc2)[n+]2ccccc2)c1 | inconclusive: 14.1 µM [inhibitor, partial curve] | 
6 | CC(=O)Nc1ccc(SCC(=O)OCC(=O)NC(=O)NCc2ccco2)cc1 | inactive | 
7 | CC(C)c1ccc(S(=O)(=O)/N=C2\C=C(NS(=O)(=O)c3ccccc3)C(=O)c3ccccc32)cc1 | inconclusive: 11.2 µM [inhibitor, partial curve] | 
8 | COc1ccccc1NC(=O)CN1CCN(CC(=O)Nc2ccc(S(N)(=O)=O)cc2)CC1 | inactive | 
9 | CSc1ccc(CN2CCN(C(=O)CC(C)C)CC2)cc1 | inconclusive: 25.1 µM [inhibitor, partial curve] | 
10 | Cc1ccc(CSCC(=O)N/N=C/c2sccc2C)cc1 | inconclusive: 17.7 µM [inhibitor, partial curve] | 
11 | CCCN1CCN(CC(=O)Nc2nnc(CC)s2)CC1 | inconclusive: 3.55 µM [inhibitor, full curve] | 
12 | c1ccc(CNc2ncnc3sc4c(c23)CCCC4)nc1 | inactive | 
13 | CCn1c2ccccc2c2nnc(SCCN3CCOCC3)nc21 | inconclusive: 20 µM [activator, partial curve] | 
14 | COc1ccc2[nH]c3c(c2c1)CCNC3c1ccc([N+](=O)[O-])o1 (centres undefined) | inconclusive: 25.1 µM [inhibitor, single point] | 
15 | O=C1CCCN1CCCNC(=S)Nc1ccc(F)c(Cl)c1 | active: 14.1 µM | 
16 | COCCCNC(=O)COc1ccc(-c2nccc(-c3ccccn3)n2)cc1 | inconclusive: 25.1 µM [inhibitor, single point] | 
17 | Cc1cccc(CSCCNC(=O)Nc2ccccc2)c1 | inactive | 
18 | COCCOCC(=O)Nc1ccc(S(=O)(=O)Nc2cc(C)nc(C)n2)cc1 | inconclusive: 28.2 µM [inhibitor, single point] | 
19 | OCC1OC(C#Cc2ccccc2)C=CC1O (centres undefined) |  | inactive: 0.384% [at 12.9 µM] and inactive: 1.64% [at 12.9 µM] and inactive: -1.11% [at 12.9 µM]
20 | CN1CCN(CCCCOc2ccccc2-c2ccccc2)CC1 | active: 19.9 µM | 
21 | CCCOc1ccc(C(=O)NNC(=S)NC(=O)c2ccccc2[N+](=O)[O-])cc1 | inconclusive: 1.78 µM [inhibitor, partial curve] | 
22 | O=C(O)c1ccccc1CSc1ncccc1C(=O)O | inconclusive: 17.7 µM [inhibitor, single point] | 
23 | Cn1cccc1C1Nc2ccccc2NC2=C1C(=O)CC(C)(C)C2 (centres undefined) | inconclusive: 7.92 µM [inhibitor, partial curve] | 
24 | Nc1nnc(SCC(=O)Nc2sc3c(c2C(=O)c2ccccc2)CCCC3)s1 | inconclusive: 14.1 µM [inhibitor, partial curve] | 
25 | Cc1ccc(-c2cc(N)nc(-c3ccccc3)c2)cc1 | inactive | 

Row | SMILES | Potency | activity, negative = inhibition
26 | N#CC1=C(N)Oc2c(oc(CO)cc2=O)C1c1ccsc1 (centres undefined) | inconclusive: 11.2 µM [inhibitor, partial curve] | 
27 | COc1cccc(/C=C2/NC(=O)N(CC(=O)Nc3ccc(C)cc3)C2=O)c1OCc1cccc(C(=O)O)c1 | inactive | 
28 | CCOc1ccc(C2C(C(=O)/C=C/c3ccco3)=C(O)C(=O)N2CCN2CCOCC2)cc1OC (centres undefined) | active: 7.92 µM | 
29 | COc1ccc(N=Cc2c(O)ccc3ccccc23)cc1 | inconclusive: 19.9 µM [inhibitor, partial curve] | 
30 | CCOC(=O)c1c(-c2ccccc2)csc1NC(=O)C(C)NCCCN1CCOCC1 (centres undefined) | active: 17.7 µM | 
31 | Fc1ccc(/C=N/Nc2nn[nH]n2)cc1 | inconclusive: 3.97 µM [inhibitor, full curve, poor fit] | 
32 | Cn1nccc1C(=O)N/N=C/c1cccnc1 | inactive | 
33 | COc1cc2c(cc1OC)C1=NC(=O)CN1C(SCc1ccccc1)=N2 | inconclusive: 17.7 µM [inhibitor, partial curve] | 
34 | O=C(NC(=S)Nc1ccc(Cl)c(C(=O)O)c1)c1ccco1 | inconclusive: 15.8 µM [inhibitor, partial curve] | 
35 | N#CC1=C(N)C(C#N)(C#N)C(c2cccnc2)C2CCCC=C12 (centres undefined) | active: 4.46 µM | 
36 | Cc1ccc(-c2nc3ccccc3[nH]2)s1 | inconclusive: 15.8 µM [inhibitor, partial curve] | 
37 | Cc1ccc(NC(=O)C(=O)NNC(=O)c2cccs2)cc1 | inconclusive: 19.9 µM [inhibitor, single point] | 
38 | O=C(Cc1ccc(Cl)cc1)NNC(=S)NC(=O)c1cccnc1 | inactive | 
39 | NC(N)=NS(=O)(=O)c1ccc(NC(=S)NC(=O)c2ccccc2)cc1 | inconclusive: 39.7 µM [inhibitor, single point] | 
40 | COc1cccc(C2=Nn3c(nnc3-c3ccccc3C)SC2)c1 | active: 9.98 µM | 
41 | Cc1c(C(=O)O)oc2ccc(S(=O)(=O)NCCC3=CCCCC3)cc12 | inconclusive: 17.7 µM [activator, single point] | 
42 | CCOc1ccc(-c2noc(-c3ccncc3)n2)cc1OCC | inactive | 
43 | COc1ccc(NC(=O)COC(=O)[C@@H](NC(=O)c2c(F)cccc2F)C(C)C)cc1 | inconclusive: 17.7 µM [inhibitor, single point] | 
44 | O=C(NNC(=O)c1ccc(O)cc1O)c1ccc(Cl)cc1 | inconclusive: 8.89 µM [inhibitor, partial curve] | 
45 | CCOc1ccc(CN2CCN(S(=O)(=O)c3ccc(NC(C)=O)cc3)CC2)cc1 | active: 15.8 µM | 
46 | COc1cc(CNCc2ccc(Br)cc2)cc(OC)c1 | inconclusive: 8.91 µM [inhibitor, partial curve] | 
47 | CCNc1ccc(C(=O)N/N=C/c2c(C)nn(-c3ccccc3)c2N2CCCC2)cc1[N+](=O)[O-] | inactive | 
48 | O=C(O)c1ccc(-c2ccccc2C(F)(F)F)o1 | inactive | 
49 | CN(C)C(=O)N(CCCN1CCOCC1)Cc1cccc2ccccc12 | inactive | 
50 | CC(=O)c1cccc(NC(=O)C(Sc2ncnc3ccccc23)c2ccccc2)c1 (centres undefined) | inactive | 

Row | SMILES | Potency | activity, negative = inhibition
51 | c1ccc(-c2ccccc2OCCN2CCCC2)cc1 | inconclusive: 17.8 µM [inhibitor, partial curve] | 
52 | COC(=O)C(C(C)=O)C1=C/C(=N\S(=O)(=O)c2ccc(C)cc2)c2ccccc2C1=O (centres undefined) | active: 12.6 µM | 
53 | CCOC(=O)C(=CNc1ccc(-c2ccco2)c(Cl)c1)C(=O)OCC | inactive | 
54 | Cc1onc(-c2cccc(Cl)c2Cl)c1C(=O)O/N=C(\N)c1ccc([N+](=O)[O-])o1 | inactive | 
55 | c1cc(CNc2ccc3c(c2)OCO3)ccn1 | inconclusive: 17.7 µM [inhibitor, partial curve] | 
56 | O=C(Cc1ccccc1)Nc1ccc2[nH]ncc2c1 | inactive | 
57 | Fc1cccc(/C=N/Nc2nccnc2Cl)c1 | inconclusive: 15.8 µM [inhibitor, single point] | 
58 | O=[N+]([O-])c1ccc(CS(=O)(=O)c2ncn[nH]2)cc1 | inconclusive: 39.8 µM [inhibitor, partial curve] | 
59 | CN1C(=O)CC(Sc2ccccc2C(=O)O)C1=O (centres undefined) | inactive | 
60 | CCN1CCC(NCCc2ccc(F)cc2)CC1 | inconclusive: 22.4 µM [inhibitor, single point] | 
61 | CC1(C)S[C@@H]2[C@H](NC(=O)[C@H](N)c3ccccc3)C(=O)N2[C@H]1C(=O)O | inconclusive: 12.6 µM [inhibitor, partial curve] | 
62 | O=C(CC1CC2CCC1C2)NCCc1ccc(Cl)cc1 (centres undefined) | inactive | 
63 | CCN(CC)c1ccc2c(-c3ccc(S(=O)(=O)O)cc3S(=O)(=O)[O-])c3ccc(=[N+](CC)CC)cc-3oc2c1 | inconclusive: 28.2 µM [activator, partial curve] | 
64 | CCCOc1ccc(OCCCCNC(C)CC)cc1 (centres undefined) | inconclusive: 19.9 µM [inhibitor, single point] | 
65 | COc1ccccc1/C=N/NC(=Nc1ccc(C)cc1)c1nc2ccccc2s1 | inactive | 
66 | Cc1ccc(NCc2ccc(O)c3ncccc23)cc1 | inconclusive: 17.7 µM [inhibitor, single point] | 
67 | O=C(Nc1cccc(F)c1)N1CCC2(CC1)CCN(C(=O)c1cnccn1)CC2 | inactive | 
68 | CC(C)(CNc1ccc([N+](=O)[O-])cc1C#N)N1CCOCC1 | inactive | 
69 | Cc1ccc(NC(=S)Nc2cccc3cnccc23)cc1 | inconclusive: 6.29 µM [inhibitor, partial curve] | 
70 | COc1ccccc1CN1CC[C@@]2(CCCN(C(=O)c3c(C)noc3C)C2)C1 | inconclusive: 17.7 µM [inhibitor, partial curve] | 
71 | CN(Cc1cccc(F)c1)CC(O)COCc1ccccc1Cl (centres undefined) | inconclusive: 15.8 µM [inhibitor, partial curve] | 
72 | CC1CCCN(CCCOc2ccccc2-c2ccccc2)C1 (centres undefined) | inconclusive: 17.7 µM [inhibitor, partial curve] | 
73 | CCOC(=O)c1c(-c2ccsc2)csc1N | inconclusive: 17.7 µM [inhibitor, partial curve] | 
74 | CSCc1nnc(NC(=O)c2ccc(S(=O)(=O)N(C)C)cc2)o1 | inconclusive: 17.7 µM [inhibitor, partial curve] | 
